According to PubChem BioAssay AID686970 (National Center for Advancing Translational Sciences (NCATS), 2013):
Out of some 360,000 compounds screened, about 6,000 (1.7%) were called active. Inconclusive results, whose numbers are uncertain, are shown with a selection of clear calls. Calls come from the whole dose curve; as a rule, active = well fitted cell-killing curve with a large enough effect; inconclusive = small, poorly fitted or top-dose-only effect, or effect the other way; inactive = flat fitted curve, though single readings scatter. Potencies of inconclusive entries are left out as doubtful fits.

test: qHTS for induction of synthetic lethality in tumor cells producing 2HG: qHTS for the HT-1080-NT fibrosarcoma cell line; conditions: HT-1080-NT fibrosarcoma viability, CellTiter-Glo ATP luminescence, 48 h; series mostly up to 46.1 µM;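 note: NT is the 2HG producing partner of a matched IDH1 knockdown line; nearly all actives have a fitted effect of over 55% in size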
Procedure, shortened: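 HT-1080-NT fibrosarcoma cells (2HG-overproducing), 750 cells/well in RPMI with 5% FBS, dosed after 2 h and incubated 48 h at 37C. CellTiter-Glo luminescence normalized to DMSO and no-cell wells; concentration-response curves fitted and classed.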
Potency is the fitted concentration of half-maximal effect; tags give direction and shape of the fitted curve.

SMILES | Potency
CCOC(=O)N1CCC(NC(=O)c2cc(C(=O)Nc3ccc(OCC)cc3)ccc2CO)CC1 | inconclusive [cytotoxic, single point]
CN(C)CCNC(=O)C(=O)NCC(c1ccc2c(c1)OCO2)N1CCN(c2ccc(F)cc2)CC1 (stereo not given) | inconclusive [cytotoxic, single point]
COc1cc2nc(N3CCCN(C)CC3)nc(NC3CCCCC3)c2cc1OC | active: 17.8 µM
COCCNc1c2c(nc3c(-c4ccccc4)c(C)nn13)CCCC2 | inconclusive [cytotoxic, single point]
CC(C)(C)NC(=O)Cn1c(=O)oc2ccc(Cl)cc21 | inactive
Cc1ccc(OCC(=O)Nc2cc(-c3nn4c(C)nnc4s3)ccc2C)cc1 | inactive
Cc1cc2nc(C(C)(C)C)c(Cc3ccccc3C(F)(F)F)n2c(C)c1Br | inconclusive [cytotoxic, single point]
CCCCN(CC(O)COc1cccc(C)c1)CC(O)COc1cccc(C)c1 (stereo not given) | active: 20.6 µM
COc1ccc(C(NC(=O)c2cc(OC)ccc2OC)c2ccccc2)cc1 (stereo not given) | inconclusive [cytotoxic, partial curve, poor fit]
CCOC(=O)N1CCN(C(=O)CNC(=O)c2nn(-c3ccc(OC)c(OC)c3)c(=O)c3ccccc23)CC1 | inactive
COc1ccccc1NC(=O)N(CCCN1CCOCC1)Cc1cc2cc3c(cc2[nH]c1=O)OCO3 | inactive
C[n+]1c2n(c3ccccc31)N=C(c1cc(C(C)(C)C)c(O)c(C(C)(C)C)c1)CS2 | active: 23.1 µM
CC(C)(C)n1ncc2c(=O)n(CC(=O)NCc3ccc(F)cc3)cnc21 | inconclusive [cytotoxic, single point]
CCOC(=O)c1cc(-c2csc(COc3ccccc3)n2)on1 | inconclusive [rising, full curve, poor fit]
N=c1oc2cc(O)ccc2cc1C(=O)Nc1ccc(F)cc1 | inactive
Cc1ccc(C(OCC(O)CNC(C)c2ccccc2)c2ccccc2)cc1 (stereo not given) | active: 14.6 µM
CC(=O)Nc1ccc(-c2ccnc3c2CC(C(=O)Nc2cccc(N(C)C)c2)O3)cc1 (stereo not given) | inconclusive [cytotoxic, partial curve]
N#C/C(=N/Nc1ccc(OC(F)(F)F)cc1)C(N)=S | active: 23.1 µM
COc1ccc(CCNC(=O)CSCc2ccc([N+](=O)[O-])cc2)cc1 | inactive
COc1ccc(C)cc1NC(=O)CCC(=O)Nc1ccc2nc(N3CCN(C)CC3)cc(C)c2c1 | inconclusive [cytotoxic, single point]
